From PubChem BioAssay AID1347073 (National Center for Advancing Translational Sciences (NCATS), 2019)
The whole screen tested about 45,000 compounds, of which about 200 (0.44%) were called active. About 7% were inconclusive and are not listed. The call rests on the fitted dose curve; in most records, active means well fitted activation curve with a large enough effect; inconclusive means small, poorly fitted or top-dose-only effect; inactive means no such curve, though single readings can be large or run the other way. The list shows a part of the results.

Test: qHTS of TDP-43 Inhibitors: NCGC Sytravon Library Screen; further: 0% is about no effect; nearly all actives have a fitted effect of over 55% in size
Settings: yeast TDP-43 toxicity rescue, BacTiter-Glo growth, 24 h; at 46.1 µM (top of the series)
How it was run: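 TDP-43-expressing yeast, pregrown in raffinose, seeded at OD600 0.02 in galactose medium with compound for 24 hr at 30 deg C. Growth read by BacTiter-Glo luminescence, so rescue of toxicity appears as activation.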

Row | Structure (SMILES) | growth rescue (activation)
1 | O=c1c2ccccc2nc(/C=C\c2cccc(Br)c2)n1-c1ccc(O)cc1 | inactive: 9.18%
2 | CCOC(=O)C1(CCc2ccccc2)CCN(C2CCSCC2)CC1 | inactive: 7.77%
3 | CCN1CCN(C(=O)COc2ccc(S(=O)(=O)N3CCOCC3)cc2C)CC1 | inactive: 6.82%
4 | Cc1ccccc1-n1c(O)c(C(c2ccncc2)c2c(O)n(-c3ccccc3C)c(=O)[nH]c2=O)c(=O)[nH]c1=O | inactive: -0.803%
5 | CCN1C(=O)C(=C/C=C/c2ccco2)C(=O)N(CC)C1=S | inactive: 5.59%
6 | COc1cc2nc(CN3CC=C(c4ccccc4)CC3)[nH]c(=O)c2cc1OC | inactive: 24.3%
7 | CN1CCN(c2cn[nH]c(=O)c2Cl)CC1 | inactive: 6.26%
8 | CCC(=NCC1CCCO1)c1c(O)n(-c2ccc(OC)cc2)c(=O)[nH]c1=O (stereo not given) | inactive: -24.1%
9 | O=[N+]([O-])c1ccc(N2CCNCC2)cc1N1CCCCCC1 | inactive: 4.35%
10 | COc1ccc(CC2(CCc3ccncc3)C(=O)NC(=O)NC2=O)c(OC)c1 | inactive: -14.6%
11 | [N-]=[N+]=NCc1cn2cccnc2n1 | inactive: -11.8%
12 | CC12CC[C@H]3[C@@H](CCC4(O)C[C@H](O)CCC34/C=N/NC(=O)c3ccccc3O)C1(O)CCC2C1=CC(=O)OC1 (stereo not given in full) | inactive: -1.49%
13 | COc1c(C)cc(C(=O)C2CCCN(Cc3ccccn3)C2)cc1C (stereo not given) | inactive: 3.38%
14 | CN1c2ccc([N+](=O)[O-])cc2CC2(C(=O)NC(=O)NC2=O)C1c1ccccc1 (stereo not given) | inactive: -26.4%
15 | COC(=O)CN1C(=O)CN=C(c2ccccc2Cl)c2cc(Br)ccc21 | inactive: 26.8%
16 | CCCc1nnc(NC(=O)CCC(=O)N2CCN(CCOC(c3ccccc3)c3ccccc3)CC2)s1 | inactive: -3.38%
17 | C[C@]12CCC3C(C[C@@H](O)[C@H]4C[C@@H](O)CC[C@]34C)C1CC[C@@H]2O (stereo not given in full) | inactive: 5.24%
18 | O=C(c1cc(F)ccc1F)C1CCCN(Cc2cccc(Cl)c2)C1 (stereo not given) | inactive: 0.629%
19 | CCOC(=O)c1c(/N=C/C2C(=O)NC(=O)NC2=O)sc2c1CCC2 | inactive: 2.25%
20 | COc1cc(C(=O)Nc2ccc(Br)cc2C(=O)c2ccccc2)cc(OC)c1OC | inactive: 5.61%
21 | CCOc1ccccc1OCC(=O)Nc1ccc(Cl)cc1C(=O)c1ccccc1 | inactive: -16.4%
22 | O=C(O)CCC(=O)NCCC1=c2ccccc2=N/C1=C\c1c(O)n(Cc2ccc(F)cc2)c(=S)[nH]c1=O | inactive: -6.61%
23 | COc1ccccc1N1C(=O)NC(=O)/C(=C/c2ccc3c(c2)Cc2ccccc2-3)C1=O | inactive: -22.1%

Row | Structure (SMILES) | growth rescue (activation)
24 | O=c1c2ccccc2nc(/C=C/c2ccc([N+](=O)[O-])o2)n1-c1ccc(O)cc1 | inactive: -4.39%
25 | Cc1ccc(S(=O)(=O)Nc2cc(C(=O)N3CCC4(CC3)OCCO4)ccc2N2CCCCC2)cc1 | inactive: -13.6%
26 | COc1ccc2c(c1OC)CN1CCc3cc4c(cc3C1C2)OCO4 (stereo not given) | inactive: -16.4%
27 | Cc1ccc2c(c1)CNc1ccccc1O2 | inactive: 17.6%
28 | O=C(c1ccc2c(c1)OCO2)C1CCCN(Cc2ccccn2)C1 (stereo not given) | inactive: 1.25%
29 | COc1ccc(-c2cc(-c3ccccc3)[n+](C)c(-c3ccccc3)c2)cc1 | inactive: -17.4%
30 | CCOC(=O)C1(Cc2ccc(Cl)cc2)CCN(C(C)CCn2cccn2)CC1 (stereo not given) | inactive: 6.39%
31 | Cc1ccc(N2C(=O)NC(=O)/C(=C\c3cc(C)n(-c4sc5c(c4C#N)CCCC5)c3C)C2=O)cc1 | inactive: 11.1%
32 | Cn1c(O)c(C=Nc2ccccc2-c2ccccc2)c(=O)n(C)c1=O | inactive: -0.786%
33 | COc1cccc(-n2c(=S)[nH]c3ccccc3c2=O)c1 | inactive: -16.4%
34 | COC(=O)C(O)(c1ccc(N(C)C)cc1)C(F)(F)F (stereo not given) | inactive: 0.948%
35 | Cc1ccc(OP(=O)(O)Oc2ccc(C)cc2)cc1 | inactive: 13.4%
36 | Cn1cccc1/C=C1/C(=O)NC(=O)N(Cc2ccc(F)cc2)C1=O | inactive: -9.83%
37 | CC12CCC(=O)C=C1CCC1C2CCC2(C)C1CCC2(O)CC#N (stereo not given) | inactive: -6.75%
38 | N/C(=N\[N+](=O)[O-])N1CCN(C(=O)c2ccccc2)CC1 | inactive: -8.5%
39 | Cn1c(O)c(C=Nc2ccccc2Sc2ccccc2)c(=O)n(C)c1=O | inactive: 7.47%
40 | Cc1c(C(=O)N2CCC3(CC2)OCCO3)sc2ncnc(N3CCc4ccccc4C3)c12 | inactive: 23%
41 | O=C(CN1CCOCC1)c1ccc(Br)cc1 | inactive: -6.28%
42 | CCCCCn1c(NC(=O)c2ccco2)c(C(=O)OCC)c2nc3ccccc3nc21 | inactive: 6.77%
43 | COc1ccccc1CCNC1CCC(C)CC1 (stereo not given) | inactive: 1.47%
44 | Cc1ccc(Cn2cc(C=O)c3ccccc32)cc1 | inactive: 22.8%
45 | CC(=O)N1CN2CN(C(C)=O)CC(C(=O)c3ccc([N+](=O)[O-])cc3)(C2)C1 | inactive: 10.9%
46 | CC(=O)Nc1ccc(C2CN(C)CC2C(=O)c2ccc(Cl)cc2)cc1 (stereo not given) | inactive: 17.4%

Row | Structure (SMILES) | growth rescue (activation)
47 | COC(=O)c1ccc(NC(=O)CSc2nc3ccc(N4C(=O)C5C6C=CC(C6)C5C4=O)cc3s2)cc1 (stereo not given) | inactive: 0.367%
48 | CC(NCc1ccccc1C(F)(F)F)C(O)c1ccccc1 (stereo not given) | inactive: 2.11%
49 | Cc1ccc2c(c1)C1CN(C)CCC1N2C(=O)Cn1cnc2c1c(=O)n(C)c(=O)n2C (stereo not given) | inactive: 3.99%
50 | CC(C)[C@H]1CC2C3CC=C4C[C@@H](O)CC[C@]4(C)C3CC[C@]2(C)[C@H]1O (stereo not given in full) | inactive: 2.18%
51 | Cc1ccc(CNC(=O)CCCn2c(=O)c3sccc3n(CC(=O)Nc3c(C)cccc3C)c2=O)cc1 | inactive: 4.24%
52 | CCOP(=O)(OCC)C(O)c1ccc(OC)cc1 (stereo not given) | inactive: 5.22%
53 | CCOC(=O)c1c(C)n(Cc2ccccc2)c2ccc(OCC(O)CNC(C)(C)C)cc12 (stereo not given) | inactive: 10.3%
54 | C=CCn1c(O)c(C(C)=Nc2ccc(C(=O)O)cc2)c(=O)[nH]c1=O | inactive: -4.97%
55 | O=c1[nH]c(=O)n(CC2CCCO2)c(O)c1/C=C1\C=Nc2ccccc21 (stereo not given) | inactive: 8.26%
56 | CNCC(C)c1ccccc1 (stereo not given) | inactive: -0.693%
57 | C=CCn1cc(C=C2C(=O)NC(=O)NC2=O)c2ccccc21 | inactive: -0.179%
58 | O=[N+]([O-])c1cc(F)c(N2CCCC2)cc1Br | inactive: 14.5%
59 | CCN(CC)c1ccc(/C=C2\C(=O)NC(=S)N(C)C2=O)o1 | inactive: 0.559%
60 | CN1CCc2nc(SCc3ccccc3Br)c(C#N)cc2C1 | inactive: -6.51%
61 | C[C@]12CCC3C(CCC4=CC(O)CC[C@@]43/C=N/O)C1(O)CCC2C1=CC(=O)OC1 (stereo not given in full) | inactive: -13.8%
62 | Cc1[nH]c2ccc(OC(F)(F)F)cc2c1CCNCc1cccc([N+](=O)[O-])c1 | inactive: 7.49%
63 | CC12CC[C@H]3[C@@H](CCC4(O)C[C@H](O)CCC34/C=N/NC(=O)c3ccccc3[N+](=O)[O-])C1(O)CCC2C1=CC(=O)OC1 (stereo not given in full) | inactive: 10.2%
64 | NC(Cc1ccc(Cl)cc1)c1csc(Nc2cnccn2)n1 (stereo not given) | inactive: 5.48%
65 | CC/C(=N\NC(=O)c1ccccc1)c1c(O)n(Cc2ccccc2)c(=O)[nH]c1=O | inactive: 4.14%
66 | C=CCn1c(O)c(C(C)=NCCC(c2ccccc2)c2ccccc2)c(=O)[nH]c1=O | inactive: 2.43%
67 | O=[N+]([O-])c1ccc(N2CCNCC2)cc1N1CCCCC1 | inactive: -17.4%
68 | Cc1ccsc1C(=O)C1CCCN(CCO)C1 (stereo not given) | inactive: -0.685%
69 | CCOC(=O)Cn1cc(C=C2C(=O)N(C)C(=O)N(C)C2=O)c2ccccc21 | inactive: 17.8%

Row | Structure (SMILES) | growth rescue (activation)
70 | O=C1NC(=O)N(c2ccc3c(c2)OCO3)C(=O)/C1=C/c1ccc(N2CCCCC2)o1 | inactive: 3.66%
71 | CC(=O)OC1N=C(c2ccccc2)c2cc(Br)ccc2N(C)C1=O (stereo not given) | inactive: 10.5%
72 | COc1cccc(NC(=O)Cn2cc(C(=O)c3ccccc3)c3ccccc32)c1 | inactive: 4.03%
73 | O=Cc1cn(Cc2ccccc2F)c2ccccc12 | inactive: 6.2%
74 | Fc1ccccc1CNCCc1c[nH]c2ccccc12 | inactive: 11.4%
75 | O=c1[nH]c(O)c(Cc2ccc3c(c2)OCO3)c(=O)[nH]1 | inactive: 9.11%
76 | O=C1C2CCCN2C(c2cccnc2)N1c1nccs1 (stereo not given) | inactive: 6.9%
77 | CCOc1ccc(NC(=O)Cn2cc(C(=O)c3ccccc3)c3ccccc32)cc1 | inactive: 7.24%
78 | O=c1[nH]c(O)c(/C=C2/C=CC(c3cc(Cl)ccc3Cl)=N2)c(=O)[nH]1 | inactive: 6.07%
79 | CCOC(=O)N(c1ccccc1)P1(=S)OCCO1 | inactive: 4.58%
80 | O=C1/C(=C/c2ccc3c(c2)OCO3)N2CCC1CC2 | inactive: -6.53%
81 | O=C(O)C1C2CC3CC(C2)CC1(n1ncc(N2CCC4(CC2)OCCO4)c(Cl)c1=O)C3 (stereo not given) | inactive: 13.7%
82 | O=S(=O)(c1ccccc1)N1CC1c1ccccc1 (stereo not given) | inactive: -4.45%
83 | Cc1ccc(-n2c(O)c(C=NCCCn3ccnc3)c(=O)[nH]c2=O)cc1 | inactive: -0.837%
84 | CN1CCN(c2nc(Cl)ncc2F)CC1 | inactive: 11.1%
85 | Cc1ccccc1-n1c(O)c(/C=N/N2CCOCC2)c(=O)[nH]c1=S | inactive: 5.81%
86 | O=C(NCCN1CCOCC1)c1ccc(Cl)nc1 | inactive: -6.56%
87 | Cc1ccccc1-n1c(O)c(/C=N/NC(=O)c2ccncc2)c(=O)[nH]c1=O | inactive: -13.6%
88 | CCC(=NCCC1=CCCCC1)c1c(O)[nH]c(=O)[nH]c1=O | inactive: 10.6%
89 | COC(=O)C(O)(c1ccc(NC(=O)NC2CCCCC2)cc1)C(F)(F)F (stereo not given) | inactive: 6.2%
90 | Cc1ccc(NC(=O)Cn2cc(C(=O)c3ccccc3)c3ccccc32)cc1 | inactive: 4.25%
